Three molecules from US20240124563A1 (NANJING ZAIMING PHARMACEUTICAL, published 2024) can be followed below.

The target of assay [1] is T1, human MSLN full-length protein, recombinant, on CHO-K1 or HEK293T cells (human, UniProt Q13421 296-598).
T1 construct: The background says that the precursor is cleaved by furin to the mature membrane form; also called hMSLN; CHO-K1-hMSLN-2C8
The experiment in a line: competitive FACS on CHO-K1-human MSLN-2C8 cells vs Biotin-Tab142; competitor at 20 nM.

For assay [2], the target named is T1, human MSLN full-length protein, …. Kind of assay: competitive FACS on CHO-K1-human MSLN-2C8 cells vs Biotin-Tab142; competitor at 100 nM.
Assay [3] concerns the target T2, chimeric human MSLN-R3 / chicken MSLN-R1-2 protein on HEK293T cells (clone A5) (chicken; human).
T2 construct: range 327-514; Human R1-R2 replaced by chicken R1-R2; also called HEK293T-chickR1-2/hR3-A5; HEK293T-hR3/chickR1-2-A5
The experiment in a line: FACS, HEK293T-hR3/chickR1-2-A5 cells, antibody 20 nM.

In assay [4] the target is T1, human MSLN full-length protein, …. Kind of assay: competitive FACS on CHO-K1-human MSLN-2C8 cells vs Biotin-Tab142; competitor at 4 nM.
Assay [5] shares this target. The experiment in a line: competitive FACS on CHO-K1-human MSLN-2C8 cells vs Biotin-Tab142; competitor at 0.8 nM.
In assay [6] the target is T3, human MSLN protein endogenously expressed on tumor cells (Hela, OVCAR3) (human, UniProt Q13421 296-598).
T3 construct: whole, on cells
The experiment in a line: FACS, Hela cells.

The target in assay [7] is T4, human MSLN-FL-his protein (human, UniProt Q13421 296-580).
T4 construct: Made in HEK293E cells, purified on nickel column; also called hMSLN-FL-his; not shown: histidine tag
The experiment in a line: SPR, antibody captured on Protein A chip, MSLN-FL-his injected, 1:1 model. A general note: SPR reads the build-up and loss of mass on a sensor chip optically.

In assay [8] the target is T1, human MSLN full-length protein, …. The experiment in a line: competitive FACS on CHO-K1-human MSLN-2C8 cells vs Biotin-Tab142; competitor at 0.0064 nM.
The target is the same in assay [9]. The experiment in a line: FACS, CHO-K1-hMSLN-2C8 cells. A general note: Flow cytometry measures light scatter and fluorescence of single cells or particles in a stream.
The target of assay [10] is T3, human MSLN protein endogenously …. The experiment in a line: FACS, OVCAR3 cells, antibody 0.2 nM.
Assay [11] deals with T1, human MSLN full-length protein, …. Kind of assay: FACS, HEK293T-hMSLN-B8 cells, antibody 0.2 nM.
In assay [12] the target is T2, chimeric human MSLN-R3 / chicken …. The experiment in a line: FACS, HEK293T-hR3/chickR1-2-A5 cells, antibody 0.2 nM.
Assay [13] has as its target T1, human MSLN full-length protein, …. Kind of assay: competitive FACS on CHO-K1-human MSLN-2C8 cells vs Biotin-Tab142; competitor at 0.032 nM.
Assay [14] concerns the target T3, human MSLN protein endogenously …. Kind of assay: FACS, OVCAR3 cells, antibody 2 nM.
For assay [15], the target named is T1, human MSLN full-length protein, …. Kind of assay: competitive FACS on CHO-K1-human MSLN-2C8 cells vs Biotin-Tab142; competitor at 0.16 nM.
Assay [16] shares this target. Kind of assay: competitive FACS on CHO-K1-human MSLN-2C8 cells vs Biotin-Tab142; competitor at 0.00128 nM.
Assay [17] has the same target. The experiment in a line: FACS, HEK293T-hMSLN-B8 cells, antibody 20 nM.
Assay [18] has as its target T3, human MSLN protein endogenously …. Kind of assay: FACS, OVCAR3 cells, antibody 20 nM.
Assay [19] deals with T1, human MSLN full-length protein, …. The experiment in a line: FACS, HEK293T-hMSLN-B8 cells.
In assay [20] the target is T3, human MSLN protein endogenously …. The experiment in a line: FACS, OVCAR3 cells.
Assay [21] has as its target T2, chimeric human MSLN-R3 / chicken …. Kind of assay: FACS, HEK293T-chickR1-2/hR3-A5 cells.

B1: NB149-81 VHH-hFc (Fc fusion)
chain: EVQLVESGGGLVQAGGALRLSCAASERTFSSSSMGWFRQAPGKEREFVAAINRIGGHIYYADSVKGRFTISKDNAKNTVYLQMSSLKPEDTAVYYCASSRIYSHSARDYDYWGQGTQVTVSS[human IgG1 Fc with changes not written out]
Regarding B1, the “MFI of Biotin-Tab142” value in assay [1] came to 25100; in assay [2], 16400; in assay [4], 33900; in assay [5] it was 39600; in assay [8], 43600; in [13], 42400. Moreover, the figures for the “MFI of Biotin-Tab142” value in assay [15] and in assay [16] were 41800 and 41200, respectively. In addition, the MFI came to 74 in [3]; 883 in assay [10]; 1330 in assay [11]; 71 in assay [12]; 4640 in [14]; 23400 in assay [17]. The same molecule came in with an MFI in assay [18] of 10900. The EC50 – broadly, the concentration that produces a half-maximal response – in [6] stood at 0.3 nM; in [9], 2.2 nM. Further, the “Max MFI” value in assay [6] amounted to 348; in assay [9] it was 11700. For the same molecule, the Kd (in general, the concentration at which binding is half-saturated) in assay [7] stood at 0.533 nM. The koff (as a rule, a measure of how fast the partners let go of each other) in [7] was determined as 0.000579 s⁻¹. The kon (usually the rate constant with which the complex forms) in assay [7] is 1.09e+06 M⁻¹ s⁻¹.

B2: NB149-97 VHH-hFc (Fc fusion)
chain: EVQVVESGGGLVQAGGGLRLSCAASERTFSSSSIGWFRQAPGKEREFVATMNRIGGHTFYADPVKGRFTISRDNAANTVYLQMSSLKPEDAAVYYCASSRIYSHSPRDYDYWSQGTQVTVSS[human IgG1 Fc with changes not written out]
For B2, the EC50 in assay [19] was 4 nM; in assay [20] it was 3.54 nM. The Kd in [7] came to 0.184 nM. Further, the koff in assay [7] was found to be 0.000174 s⁻¹. In assay [7], this molecule registered a kon of 945000 M⁻¹ s⁻¹. Further, the MFI in [10] came out at 1200; in assay [14], 5760; in assay [18] it was 11600.

B3: Tab108 (YP218, scFv-hIgG1 Fc) (Fc fusion)
chain: QQQLEESGGGLVKPEGSLTLTCKASGFDLGFYFYACWVRQAPGKGLEWIACIYTAGSGSTYYASWAKGRFTISKASSTTVTLQMTSLAAADTATYFCARSTANTRSTYYLNLWGPGTLVTVSSGGGGSGGGGSGGGGSDVVMTQTPASVSEPVGGTVTIKCQASQRISSYLSWYQQKPGQRPKLLIFGASTLASGVPSRFKGSGSGTEYTLTISDLECADAATYYCQSYAYFDSNNWHAFGGGTEVVV[human IgG1 Fc with changes not written out]
notes: also called YP218 scFv-human IgG1 Fc (hFc) antibody
B3 showed an EC50 in assay [21] of approximately 4.62 nM.
